# The other results are listed elsewhere or left out.
# What was measured:
# Test in all cases: glycan array binding signal (z-score within array); higher = stronger binding
# Settings in all cases: glycan notation: IUPAC condensed, linker removed
# [1] = target: Gal(a1-3)Gal(b1-4)GlcNAc(b1-2)Man
# Method in brief: (§1)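 Arrays were curated from the Consortium for Functional Glycomics database, 3228 in total, and kept only where the protein sequence was available. Binding is expressed as a within-array Z-score. This score was averaged across arrays of the same protein sequence at different concentrations or buffers and across linkers, and negative values can be read as non-binding.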
# [2] = target: Gal(a1-3)Gal(b1-4)GlcNAc(b1-2)Man(a1-3)[Gal(a1-3)Gal(b1-4)GlcNAc(b1-2)Man(a1-6)]Man(b1-4)GlcNAc(b1-4)GlcNAc
# Method in brief: as §1
# [3] = target: Gal(a1-3)Gal(b1-4)GlcNAc(b1-3)GalNAc
# Method in brief: as §1
# [4] = target: Gal(a1-3)Gal(b1-4)GlcNAc(b1-6)GalNAc
# Method in brief: as §1
# [5] = target: Gal(a1-3)Gal(b1-4)[Fuc(a1-3)]GlcNAc
# Method in brief: as §1
# [6] = target: Gal(a1-3)Gal(b1-4)[Fuc(a1-3)]GlcNAc(b1-2)Man(a1-3)[Gal(a1-3)Gal(b1-4)[Fuc(a1-3)]GlcNAc(b1-2)Man(a1-6)]Man(b1-4)GlcNAc(b1-4)GlcNAc
# Method in brief: as §1
# Gal(a1-3)GalNAc = target: Gal(a1-3)GalNAc
# Method in brief: as §1
# [7] = target: Gal(a1-3)[Gal(a1-4)]Gal(b1-4)GlcNAc
# Method in brief: as §1
# [8] = target: Gal(a1-4)Gal(b1-3)GlcNAc(b1-2)Man(a1-3)[Gal(a1-4)Gal(b1-3)GlcNAc(b1-2)Man(a1-6)]Man(b1-4)GlcNAc(b1-4)GlcNAc
# Method in brief: as §1
# Gal(a1-4)Gal(b1-4)Glc = target: Gal(a1-4)Gal(b1-4)Glc
# Method in brief: as §1
# Gal(a1-4)Gal(b1-4)GlcNAc = target: Gal(a1-4)Gal(b1-4)GlcNAc
# Method in brief: as §1
# [9] = target: Gal(a1-4)Gal(b1-4)GlcNAc(b1-2)Man(a1-3)[Gal(a1-4)Gal(b1-4)GlcNAc(b1-2)Man(a1-6)]Man(b1-4)GlcNAc(b1-4)GlcNAc
# Method in brief: as §1
# [10] = target: Gal(a1-4)Gal(b1-4)GlcNAc(b1-3)Gal(b1-4)Glc
# Method in brief: as §1
# Gal(a1-4)GlcNAc = target: Gal(a1-4)GlcNAc
# Method in brief: as §1
# Gal(a1-6)Glc = target: Gal(a1-6)Glc
# Method in brief: as §1
# Gal(b1-2)Gal = target: Gal(b1-2)Gal
# Method in brief: as §1
# Gal(b1-3)Gal = target: Gal(b1-3)Gal
# Method in brief: as §1
# Gal(b1-3)Gal(b1-4)GlcNAc = target: Gal(b1-3)Gal(b1-4)GlcNAc
# Method in brief: as §1
# Gal(b1-3)GalNAc = target: Gal(b1-3)GalNAc
# Method in brief: as §1
# [11] = target: Gal(b1-3)GalNAc(a1-3)[Fuc(a1-2)]Gal(b1-4)Glc
# Method in brief: as §1
# [12] = target: Gal(b1-3)GalNAc(a1-3)[Fuc(a1-2)]Gal(b1-4)GlcNAc
# Method in brief: as §1
# Gal(b1-3)GalNAc(b1-3)Gal = target: Gal(b1-3)GalNAc(b1-3)Gal
# Method in brief: as §1
# [13] = target: Gal(b1-3)GalNAc(b1-3)Gal(a1-4)Gal(b1-4)Glc
# Method in brief: as §1
# [14] = target: Gal(b1-3)GalNAc(b1-4)Gal(b1-4)Glc
# Method in brief: as §1
# [15] = target: Gal(b1-3)GalNAc(b1-4)[Neu5Ac(a2-3)]Gal(b1-4)Glc
# Method in brief: as §1
# Gal(b1-3)GlcNAc = target: Gal(b1-3)GlcNAc
# Method in brief: as §1
# [16] = target: Gal(b1-3)GlcNAc(a1-3)Gal(b1-4)GlcNAc
# Method in brief: as §1
# [17] = target: Gal(b1-3)GlcNAc(a1-6)Gal(b1-4)GlcNAc
# Method in brief: as §1
# Gal(b1-3)GlcNAc(b1-2)Man = target: Gal(b1-3)GlcNAc(b1-2)Man
# Method in brief: as §1
# [18] = target: Gal(b1-3)GlcNAc(b1-2)Man(a1-3)[Gal(b1-3)GlcNAc(b1-2)Man(a1-6)]Man(b1-4)GlcNAc(b1-4)GlcNAc
# Method in brief: as §1
# [19] = target: Gal(b1-3)GlcNAc(b1-2)Man(a1-3)[Gal(b1-3)GlcNAc(b1-2)Man(a1-6)]Man(b1-4)GlcNAc(b1-4)[Fuc(a1-6)]GlcNAc
# Method in brief: as §1
# [20] = target: Gal(b1-3)GlcNAc(b1-2)Man(a1-3)[GlcNAc(b1-4)][Gal(b1-3)GlcNAc(b1-2)Man(a1-6)]Man(b1-4)GlcNAc(b1-4)GlcNAc
# Method in brief: as §1
# [21] = target: Gal(b1-3)GlcNAc(b1-2)[Gal(b1-3)GlcNAc(b1-6)]Man(a1-6)[Gal(b1-3)GlcNAc(b1-2)Man(a1-3)]Man(b1-4)GlcNAc(b1-4)GlcNAc
# Method in brief: as §1
# [22] = target: Gal(b1-3)GlcNAc(b1-3)Gal(b1-3)GlcNAc
# Method in brief: as §1
# [23] = target: Gal(b1-3)GlcNAc(b1-3)Gal(b1-4)Glc
# Method in brief: as §1
# [24] = target: Gal(b1-3)GlcNAc(b1-3)Gal(b1-4)GlcNAc
# Method in brief: as §1
# [25] = target: Gal(b1-3)GlcNAc(b1-3)Gal(b1-4)GlcNAc(b1-2)Man(a1-3)[Gal(b1-3)GlcNAc(b1-3)Gal(b1-4)GlcNAc(b1-2)Man(a1-6)]Man(b1-4)GlcNAc(b1-4)GlcNAc
# Method in brief: as §1
binder,measurement,setting,value
PX9937B-bvu-524-33-524 (Bacteroides vulgatus) (protein) GTAYWKNPDQFTAFNTGLHALLREKSYNFFLLGEPRADIYGDNPIGGEASQGMERLPFNTINKENVGISNYGDMYKIINQINQMIAKTTETTILTEATQNYYLGEAYGMRAYLYFHLLRSWGDVVLYLDYTEGQNLDLSNITKGVSPATEVMEQIKKDIQASENAFGSDYSFKLGRHFWSAAATQMLKGEAYLWSGRQMNGGNSDYTIAKNAFENVKKADVGLVTSSFKDIFSFENKKNKEMIFTIHNGKDEYEMWGGYYRMRLIPAQDKMVKIYCDENGNSFVGTPDAQLNGLTQLQVRREFYFKGFRNNDTRWTTSLKAVYKKDAQGVVSYFGPITYKFQGTMLEGGSTRSFLDDFPIYRYADCLLQLAMAKVLLGEDPTEEINAVRERAYGSKYFNEHKAEIAYPNDNDPEFYTDNKWMKPDNAGALEAILKERLREFMFEGKRWYDIRLLGWDYVHQYSSAEQSRLLWPIDAGTLTNNSALKQTPGYE,glycan array binding signal (z-score),[1],-0.063
same,glycan array binding signal (z-score),[2],2.91
same,glycan array binding signal (z-score),[3],-0.383
same,glycan array binding signal (z-score),[4],-0.216
same,glycan array binding signal (z-score),[5],-0.389
same,glycan array binding signal (z-score),[6],1.23
same,glycan array binding signal (z-score),Gal(a1-3)GalNAc,-0.384
same,glycan array binding signal (z-score),[7],0.889
same,glycan array binding signal (z-score),[8],0.413
same,glycan array binding signal (z-score),Gal(a1-4)Gal(b1-4)Glc,0.805
same,glycan array binding signal (z-score),Gal(a1-4)Gal(b1-4)GlcNAc,-0.219
same,glycan array binding signal (z-score),[9],0.043
same,glycan array binding signal (z-score),[10],-0.305
same,glycan array binding signal (z-score),Gal(a1-4)GlcNAc,-0.412
same,glycan array binding signal (z-score),Gal(a1-6)Glc,-0.181
same,glycan array binding signal (z-score),Gal(b1-2)Gal,-0.37
same,glycan array binding signal (z-score),Gal(b1-3)Gal,-0.297
same,glycan array binding signal (z-score),Gal(b1-3)Gal(b1-4)GlcNAc,-0.504
same,glycan array binding signal (z-score),Gal(b1-3)GalNAc,0.537
same,glycan array binding signal (z-score),[11],-0.478
same,glycan array binding signal (z-score),[12],-0.301
same,glycan array binding signal (z-score),Gal(b1-3)GalNAc(b1-3)Gal,0.74
same,glycan array binding signal (z-score),[13],-0.211
same,glycan array binding signal (z-score),[14],-0.096
same,glycan array binding signal (z-score),[15],-0.419
same,glycan array binding signal (z-score),Gal(b1-3)GlcNAc,-0.32
same,glycan array binding signal (z-score),[16],-0.471
same,glycan array binding signal (z-score),[17],-0.305
same,glycan array binding signal (z-score),Gal(b1-3)GlcNAc(b1-2)Man,-0.213
same,glycan array binding signal (z-score),[18],-0.057
same,glycan array binding signal (z-score),[19],0.088
same,glycan array binding signal (z-score),[20],-0.031
same,glycan array binding signal (z-score),[21],0.584
same,glycan array binding signal (z-score),[22],1.34
same,glycan array binding signal (z-score),[23],-0.333
same,glycan array binding signal (z-score),[24],-0.228
same,glycan array binding signal (z-score),[25],12.8

# — the supplement of paper PMC8728848
